# Test results taken from PubChem BioAssay AID1346428 (National Center for Advancing Translational Sciences (NCATS), 2018).
# Values joined by “and” are separate entries in the source; they are usually repeats but may differ in a detail not shown here. Equal entries are not always repeated. Out of some 48,000 compounds screened, about 1,200 (2.5%) were called active. Inconclusive results (about 2%) are left out.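 The calls were made as follows: active = activation of at least 60% and not above a set upper limit (about 1 call in 100 departs from these limits); inconclusive = activation of 40% to 60%, or above that upper limit; inactive = activation under 40%.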 Some of the results follow.
# Target: Probable G-protein coupled receptor 32 (Homo sapiens) (UniProt O75388)
# Sequence of UniProt O75388 (O75388 whole entry, looked up): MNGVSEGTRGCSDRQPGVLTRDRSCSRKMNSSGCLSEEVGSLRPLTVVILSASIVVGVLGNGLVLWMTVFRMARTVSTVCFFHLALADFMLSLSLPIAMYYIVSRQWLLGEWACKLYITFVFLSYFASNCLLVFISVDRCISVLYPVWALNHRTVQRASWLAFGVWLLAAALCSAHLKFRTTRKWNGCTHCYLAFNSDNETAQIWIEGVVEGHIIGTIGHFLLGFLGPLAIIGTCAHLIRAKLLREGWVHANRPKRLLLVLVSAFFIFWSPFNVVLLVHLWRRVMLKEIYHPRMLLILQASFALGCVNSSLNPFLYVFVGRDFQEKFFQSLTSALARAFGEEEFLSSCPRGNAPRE
# Experiment: qHTS for Agonists of Human Resolvin D1 Receptor DRV1; also: 0% is about no effect
# Details: CHO-K1 GPR32 beta-arrestin PathHunter luminescence, 90 min; at 76.9 µM; active compounds read high; zero percent set by DMSO-only wells
# Procedure, shortened: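 GPR32 activation in stably transfected CHO-K1 cells, detected as beta-arrestin recruitment by enzyme-fragment complementation. Compound exposure: 90 min, 37 °C.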
row,Structure (SMILES),activation
1,CCN(CC)CCCNC(=O)c1cc(-c2ccc(OC)c(OC)c2)on1,inactive: -10.8%
2,Cc1cc(C)n2nc(CNS(=O)(=O)c3ccc(Cl)cc3)nc2n1,inactive: -4.62%
3,CC1CN(C(=O)N2CCC(C(=O)NC3CCCCCC3)CC2)c2cc(Cl)ccc2O1 (stereo not given),inactive: 1.62%
4,Cc1ccc(NC(=O)C2CCCN2S(=O)(=O)c2cccc3cccnc23)cc1 (stereo not given),inactive: -1.52%
5,COc1ccc(-c2ccnc3c(-c4ccc(F)cc4)c(C)nn23)cc1OC,inactive: 11.5%
6,COc1cc(C(=O)NC2CC(=O)N(c3cccc(F)c3)C2)cc(OC)c1OC (stereo not given),inactive: -8%
7,O=C(Cn1cc(SCc2cccc(Cl)c2)c2ccccc21)N1CCOCC1,inactive: -31.2%
8,O=c1[nH]c(SCc2ccc(F)cc2)nc2c1CCCC2,inactive: 33.4%
9,CCc1nnc2c(NCc3ccc(F)cc3)nc3ccccc3n12,inactive: 0.395%
10,COc1ccc(CNC(=O)C2CCCN(S(=O)(=O)c3ccc4c(c3)CCCN4C(C)=O)C2)cc1 (stereo not given),inactive: 8.41%
11,COc1ccc(NC(=O)c2ccco2)cc1NC(=O)COc1cc(C)cc(C)c1,inactive: 12.5%
12,CCC(=O)N1CCc2cc(Br)cc(S(=O)(=O)N3CCN(c4ccccc4)CC3)c21,inactive: -0.862%
13,CCOc1ccc2nc(N3CCCC(C(=O)Nc4ccc(Br)c(C)c4)C3)sc2c1 (stereo not given),inactive: -1.96%
14,COc1ccc2c(c1)NC(c1ccc(OCC(C)C)cc1)=NC(c1ccncc1)=N2,inactive: -29.2%
15,COc1ccc(CCNC(=O)c2cc(Sc3cccc(Cl)c3)nc3ccccc23)cc1OC,inactive: -19.6%
16,COc1ccc2c(c1)CC(C(=O)N1CCC(C(N)=O)CC1)CO2 (stereo not given),inactive: -1.46%
17,COc1ccccc1N1CCN(C(=O)c2oc3ccccc3c2NC(=O)C(C)Oc2ccccc2)CC1 (stereo not given),inactive: -11.9%
18,O=C(Nc1cc(Cl)cc(Cl)c1)c1ccc(F)c(S(=O)(=O)N2CCCCCC2)c1,inactive: -0.8%
19,Cc1ccc(C(C)C)c(OCCn2cc(C(=O)c3ccco3)c3ccccc32)c1,inactive: -6.22%
20,CCOc1ccc(-c2n[nH]c3c2C(c2ccccc2OC)N(c2ccc(Br)cc2)C3=O)cc1 (stereo not given),inactive: -5.97%
21,CCOc1ccccc1CNC(=O)CCCN1C(=O)COc2ccc(C)cc21,inactive: -17.4%
22,COc1ccc(-c2cn(-c3ccc(C)cc3)c(S(=O)(=O)CC(=O)Nc3ccccc3)n2)cc1,inactive: 10.8%

row,Structure (SMILES),activation
1,Cc1oc2ncn(CC(C)C)c(=O)c2c1C(=O)Nc1cccc(C(F)(F)F)c1,inactive: -5.96%
2,O=C(Nc1ccc(Cl)c(Cl)c1)c1cc(S(=O)(=O)N2CCN(c3cccc(Cl)c3)CC2)ccc1F,inactive: -8.24%
3,CC(C)c1ccccc1NC(=O)CSc1nnc(COc2ccccc2)o1,inactive: 11.6%
4,Cc1ccc(CNC(=O)CN(C)S(=O)(=O)c2ccc(Br)s2)cc1,inactive: -13.4%
5,Cc1cc(Br)ccc1NC(=O)c1coc(=O)c2ccccc12,active: 71.9%
6,COc1ccc(-c2nnc(SCC(=O)Nc3ccccc3C)o2)cc1OC,inactive: 16.6%
7,CCn1c(=O)c2sccc2n2c(CCC(=O)N3CCN(c4ccccc4OC)CC3)nnc12,inactive: -3.69%
8,O=C(NCCCCc1ccccc1)c1nn(-c2ccccc2F)nc1CO,inactive: -4.23%
9,CC(C)OCCCn1c(SCC(N)=O)nc2c(sc3ccccc32)c1=O,active: 115%
10,Cc1nn(CCC(=O)NCc2cccc(Br)c2)c(=O)c2nn(-c3ccccc3)c(C)c12,inactive: -15%
11,O=C(c1ccc(CS(=O)c2ccccc2Cl)o1)N1CCN(c2cccc(C(F)(F)F)c2)CC1 (stereo not given),inactive: 13.4%
12,CC(C)NC(=O)Cn1ccc2cc(S(=O)(=O)N3CCCCCC3)ccc21,inactive: 8.55%
13,CCCOc1ccc(C(=O)NCC(c2ccc(OC)cc2)N2CCCCC2)cc1 (stereo not given),inactive: -10.5%
14,Cc1cccc(OCCCSc2nc(-c3ccc(C(C)(C)C)cc3)nc3cc(=O)[nH]n23)c1C,inactive: -26%
15,O=S(=O)(c1ccccc1)c1nc(-c2cccs2)oc1N1CCCCC1,inactive: -5.56%
16,CC(NC(=O)c1ccc(CSc2nc3ccncc3n2Cc2ccc(F)cc2)cc1)c1ccccc1 (stereo not given),inactive: -0.168%
17,Cc1cccc(-n2c(=O)c3c(c4cc(C)ccc4n3C)n(CC(=O)Nc3ccccc3Cl)c2=O)c1,inactive: 6.49%
18,CCCCCn1c(=O)[nH]c2cc(C(=O)NCc3ccc(F)cc3)ccc2c1=O,inactive: -19.1%
19,COCCNC(=O)c1ccc2c(c1)N(Cc1ccc(C(F)(F)F)cc1)C(=O)c1ccccc1S2,inactive: 17.5%
20,COc1ccc(N2CCN(C(=O)c3cn(C)c4ccc(S(=O)(=O)N(C)C5CCCCC5)cc4c3=O)CC2)cc1,inactive: 2.02%
21,COc1cc2ccccc2cc1C(=O)Nc1cccc(-c2nc3ccccc3o2)c1,inactive: 8.85%
22,Cc1ccccc1NC(=O)CCOc1ccccc1,inactive: -16.2%

row,Structure (SMILES),activation
1,Cc1ccc(NC(=O)c2c(C(=O)Nc3ccccc3)sc3nc(C)cc(=O)n23)cc1,inactive: -2.54%
2,COc1ccc(CNC(=O)C2CCN(S(=O)(=O)c3c(C)noc3/C=C/c3cccs3)CC2)cc1,inactive: -19.9%
3,CC(C(=O)NCc1cccc(Br)c1)n1ncn2cccc2c1=O (stereo not given),inactive: -18.9%
4,Cc1ccccc1S(=O)(=O)Cc1ccc(C(=O)NCc2ccccc2Cl)o1,inactive: 42%
5,Nc1nn(-c2ccccc2)nc1C(=O)OCc1ccccc1Br,inactive: -5.18%
6,Cc1ccc(NC(=O)c2cc(CN3CCOCC3)on2)cc1Cl,inactive: 8.55%
7,COc1cc(-c2nc3ccc(Cl)cn3c2Nc2ccc3c(c2)OCO3)ccc1O,inactive: -11.5%
8,Cn1cc(-c2cc3n(n2)CCC(=O)N3CCCC(=O)Nc2ccccc2Cl)c2ccccc21,active: 60.3%
9,CC1=C(C(=O)Nc2ccc(C)cc2Cl)C2(CCCCC2)OC1=O,inactive: -23.4%
10,COc1ccc2c(c1)CCc1c(C(=O)Nc3c(C)nn(Cc4c(Cl)cccc4Cl)c3C)noc1-2,inactive: 3.67%
11,CCOC(=O)c1c(C)[nH]c(C)c1S(=O)(=O)NCC(=O)Nc1ccc(CC)cc1,inactive: 6.48%
12,CCc1ccccc1NC(=O)c1cc2sc(Cl)cc2n1CC,inactive: -15.8%
13,O=C(c1cccs1)c1cn(CCOc2ccc(F)cc2)c2ccccc12,inactive: -33.6%
14,COc1ccccc1N1CCN(CCCNc2cc(=O)n(C)c(=O)n2C)CC1,inactive: -9.5% and inactive: -3.31%
15,O=C(Cn1cnc2onc(-c3ccc(F)cc3)c2c1=O)N1CCN(c2ccccc2F)CC1,inactive: 13.3%
16,CCOC(=O)c1noc2ncn(CC(=O)Nc3cc(Cl)ccc3OC)c(=O)c12,inactive: 12.1%
17,O=C(O)Cc1sc(Nc2ccc(C(=O)O)cc2)nc1-c1ccccc1,inactive: 5.77%
18,CC(=O)N1CCOc2cc(S(=O)(=O)Nc3cc(C(F)(F)F)ccc3Cl)c(C)cc21,inactive: -8.98%
19,CCCNC(=O)c1c(NC(=O)c2ccc(C)cc2)sc2c1CCCCC2,inactive: 0.26%
20,COc1ccc2c(c1)c1c(c(=O)n(Cc3ccccc3)c(=O)n1Cc1ccccc1)n2C,inactive: -1.82%
21,CCSc1ncc(Cl)c(C(=O)N(Cc2ccc(C(C)(C)C)cc2)C2CCS(=O)(=O)C2)n1 (stereo not given),inactive: -26.2%
22,CCOC(=O)c1cccc(NC(=O)Nc2ccc3c(c2)N(C)C(=O)c2ccccc2S3)c1,inactive: 8.86%

row,Structure (SMILES),activation
1,O=C(CCCN1CCC(O)(c2cccc(C(F)(F)F)c2)CC1)c1ccc(F)cc1,inactive: 7.76% and inactive: -12.6%
2,CCOC(=O)c1c(C)oc2nc(C)nc(NCCCN3CCN(c4cc(Cl)ccc4C)CC3)c12,inactive: -26.4%
3,Cc1ccc(-c2noc(-c3nnn(CC(=O)Nc4cccc(C(F)(F)F)c4)c3N)n2)cc1,inactive: 1.72%
4,O=C(NCCCN1CCN(c2ccccc2F)CC1)C1COc2ccccc2C1 (stereo not given),inactive: -16.7%
5,Cc1ccc(C(=O)NCC(=O)OCc2cc(=O)n3nc(C4CC4)sc3n2)cc1,inactive: 6.73%
6,O=C(O)c1cccnc1SCc1cccc(Cl)c1,inactive: 8.35%
7,COc1ccc(S(=O)(=O)Cc2ccc(C(=O)N3CCN(c4cc(C)ccc4C)CC3)o2)cc1,inactive: 21.2%
8,O=C(Nc1cccc(-c2nc3ccccc3[nH]2)c1)c1c(F)cccc1F,inactive: 10.9%
9,CC(C)c1ccc(S(=O)(=O)c2nnn3c2nc(N2CCOCC2)c2sccc23)cc1,inactive: -2.84%
10,CC1CCN(S(=O)(=O)c2ccc3c(ccn3CC(=O)NCc3ccc(N(C)C)cc3)c2)CC1,inactive: -10.6%
11,Cc1ccccc1OCC(=O)Nc1c(C)ccc2nsnc12,inactive: -2.67%
12,COc1nc(N)nc2c1ncn2[C@@H]1O[C@H](CO)[C@@H](O)[C@@H]1O,inactive: 4.02%
13,CCC1CN(C(=O)N2CCC(C(=O)N3CCN(c4ccc(F)cc4)CC3)CC2)c2ccccc2O1 (stereo not given),inactive: -11.3%
14,CCCCc1nn2c(=O)cc(COC(=O)C(C)Oc3ccccc3)nc2s1 (stereo not given),inactive: 1.25%
15,Cc1c(C(=O)Nc2ccccc2Br)oc2ccc(S(=O)(=O)N3CCOCC3)cc12,inactive: -8.85%
16,COc1ccc(CCC(=O)NCc2nc3cccnc3n2Cc2cccc(OC)c2)cc1,inactive: -20.2%
17,COc1ccc(Cl)cc1NC(=O)Cn1nc(C(F)(F)F)c2c1CCC2,inactive: -3.49%
18,Cc1ccc(NC(=O)C2CCN(C(=O)c3cnn(-c4ccccc4)c3-n3cccc3)CC2)cc1,inactive: 2.24%
19,CCOC(=O)N1CCc2c(sc3c2c(=O)n(-c2ccc(CC)cc2)c(=O)n3CC(=O)c2ccccc2)C1,inactive: -14%
